Screen size: about 310,000 compounds; about 14,000 (4.5%) showed an effect of 50% or more. Effects have a minus sign here. This is one part of the list.
Biological target: human ether-à-go-go-related gene (hERG) potassium channel (human, UniProt Q12809)
Experiment: primary screen, population patch clamp on CHO cells stably expressing hERG
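Note: peak tail current of the secondary pulse compared with the same well before compound.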

Sequence of human ether-à-go-go-related gene (hERG) potassium channel (Q12809 whole entry, looked up): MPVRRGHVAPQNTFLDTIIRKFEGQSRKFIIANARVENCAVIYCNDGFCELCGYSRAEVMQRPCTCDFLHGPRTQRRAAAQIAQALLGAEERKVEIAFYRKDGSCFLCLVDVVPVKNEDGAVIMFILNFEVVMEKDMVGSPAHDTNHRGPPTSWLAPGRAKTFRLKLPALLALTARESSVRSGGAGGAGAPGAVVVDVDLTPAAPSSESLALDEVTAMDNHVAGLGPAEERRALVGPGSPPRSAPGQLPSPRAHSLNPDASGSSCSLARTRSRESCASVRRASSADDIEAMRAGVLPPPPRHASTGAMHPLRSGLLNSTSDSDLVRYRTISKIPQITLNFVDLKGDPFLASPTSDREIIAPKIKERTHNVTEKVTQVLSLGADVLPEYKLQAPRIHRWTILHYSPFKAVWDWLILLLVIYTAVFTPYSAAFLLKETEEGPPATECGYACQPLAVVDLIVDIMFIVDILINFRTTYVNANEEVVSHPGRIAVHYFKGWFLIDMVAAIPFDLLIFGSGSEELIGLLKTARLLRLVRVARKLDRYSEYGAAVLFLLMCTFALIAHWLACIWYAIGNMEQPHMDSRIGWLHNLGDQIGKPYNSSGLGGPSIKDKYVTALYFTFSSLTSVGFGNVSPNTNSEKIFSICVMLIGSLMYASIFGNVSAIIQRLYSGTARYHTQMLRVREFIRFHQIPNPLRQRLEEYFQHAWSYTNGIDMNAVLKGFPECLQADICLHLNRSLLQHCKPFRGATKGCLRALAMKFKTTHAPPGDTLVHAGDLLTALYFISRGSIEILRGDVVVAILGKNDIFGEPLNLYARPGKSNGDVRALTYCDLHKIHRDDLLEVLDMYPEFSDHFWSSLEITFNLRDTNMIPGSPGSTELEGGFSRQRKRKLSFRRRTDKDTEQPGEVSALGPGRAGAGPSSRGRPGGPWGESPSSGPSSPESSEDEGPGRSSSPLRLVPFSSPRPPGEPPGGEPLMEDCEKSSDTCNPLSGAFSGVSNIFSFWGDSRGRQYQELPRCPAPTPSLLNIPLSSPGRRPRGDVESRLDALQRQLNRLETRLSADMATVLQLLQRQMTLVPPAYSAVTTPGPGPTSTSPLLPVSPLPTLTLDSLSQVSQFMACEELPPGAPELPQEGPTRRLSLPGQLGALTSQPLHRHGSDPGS

Compound | hERG current change (%, negative = inhibition) at 10uM [%]
CC(NS(=O)(=O)c1ccccc1)C(c1cccs1)N1CCN(c2ccccc2)CC1 (stereo not drawn) | 0.452
CSCCC(NC(=O)c1ccc(C(C)(C)C)cc1)C(=O)O (stereo not drawn) | -0.162
N#C/C(=C\c1cn(-c2ccccc2)nc1-c1cc2ccccc2o1)c1nc2ccccc2[nH]1 | -3.54
COc1ccc(C(=O)N2CCCC2=O)cc1 | 17
Cc1cccc(Cc2ncc(C(F)(F)F)cc2Cl)c1 | 11.3
COc1ccc(COC(=O)C2CC(=O)N(Cc3ccccc3)C2)cc1 (stereo not drawn) | -34.1
Cc1ccc2cc(CN(CC(C)C)S(=O)(=O)c3cccc4nonc34)c(=O)[nH]c2c1 | 1.97
O=C(Nc1ccccc1)N1CC=C(c2ccc(F)cc2)CC1 | 12.1
CCOc1ccc2nc(NC(=O)c3ccccn3)sc2c1 | 6.42
CC(C)(C)c1ccc(C(=O)N2CCC(C(=O)NCC3CCCO3)CC2)cc1 (stereo not drawn) | -23.6
COc1ccc(NS(=O)(=O)c2ccc(NC(=O)C3CCCO3)cc2)cc1 (stereo not drawn) | -9.37
CCOc1cc(C(=O)O)ccc1OCCOc1ccccc1 | 5.62
O=C(NC12CC3CC(CC(C3)C1)C2)C1CC(=O)N(c2ccc(Br)cc2)C1 (stereo not drawn) | 7.68
Clc1cccc(Cl)c1C1=NOC(c2nnc(-c3ccccc3)o2)C1 (stereo not drawn) | -0.869
CC12Cc3ccc4ccccc4c3C=C1C[N+](C)(C)C2.[Cl-] (stereo not drawn) | -2.5
Cc1ccc(S(=O)(=O)NCc2ccc(C(=O)NCCN(Cc3ccccc3)C(C)C)cc2)cc1 | -36.4
Cc1ccc(OCC(=O)NNC(=S)NC(=O)c2ccc(Br)o2)c(C)c1 | 21.6
CC(C)Cn1c(-c2ccc(Br)cc2)c[nH]c1=S | 28.4
CC1CCN(C(=S)Nc2ccc3nc4n(c(=O)c3c2)CCCCC4)CC1 | -55.2
CCOC(=O)c1cnc(-c2ccccc2)nc1C(F)(F)F | 1.28
CCc1ccccc1NC(=O)Nc1cccc(F)c1 | 6.94
O=C(Nc1nnc(CCS(=O)(=O)c2ccc3ccccc3c2)s1)c1cccs1 | 2.13

Compound | hERG current change (%, negative = inhibition) at 10uM [%]
COc1ccc(NC(=O)C2CCC2)cc1S(=O)(=O)N1CCOCC1 | -4.9
CC(Oc1ccc(F)cc1)C(=O)/C=C\N(C)C (stereo not drawn) | 3.1
O=C(CS(=O)(=O)Cc1ccccc1)Nc1ccc(S(=O)(=O)N2CCCCCC2)cc1 | -6.67
CC(C)(C)S(=O)(=O)/C(C#N)=C/Nc1ccccn1 | 3.87
COc1ccc(-n2c(C)nnc2SCC(=O)N2C(C)CCCC2C)cc1 (stereo not drawn) | -5.27
COc1cc(-c2nc(=S)[nH][nH]2)cc(OC)c1OC | 5.94
CCC(C)Sc1nnc(Cc2cc(=O)[nH]c(=O)[nH]2)n1-c1ccc(F)cc1 (stereo not drawn) | 16.1
CC(=O)NC(C)C(c1cccs1)N1CCN(c2ccccc2)CC1 (stereo not drawn) | -1.08
Nc1ccc(S(=O)(=O)c2ccc(Cl)cc2)cc1 | -42
CN(C(=O)Nc1ccc(Cl)c(Cl)c1)c1ccccc1C(=O)O | 3.19
Cc1ccc(C)c(-c2cc(C(=O)NN3CCOCC3)c3ccccc3n2)c1 | -17.1
Cc1sc2nc(SCC(=O)NCCO)n(C)c(=O)c2c1C | 3.27
Cc1nn(C)cc1S(=O)(=O)NCc1ccccc1Cl | 18.6
CN(c1ccc(C(=O)Nc2cccnc2)cc1)S(C)(=O)=O | 0.0139
Cc1ccc(S(=O)(=O)N(CC(=O)Nc2cccc(C(F)(F)F)c2)C(=O)N2CCN(C)CC2)cc1 | 9.98
CCCc1cc(=O)oc2c(C)c(OCC(=O)NCCN3CCOCC3)ccc12 | -31.6
COc1cccc(CN2CCN(CC(=O)NCCc3ccccc3)CC2)c1 | -11.8
Cc1ccc(-c2nc3ccccc3[nH]2)cc1NC(=O)c1ccc2c(c1)OCO2 | -34.8
C[C@H](CO)NC(=O)[C@@H]1C[C@H]1[C@@H](NP(=O)(c1ccccc1)c1ccccc1)c1ccccc1 | 3.36
CSCCC(NC(=O)c1ccccc1)C(=O)OCC(=O)N(C)CCC#N (stereo not drawn) | -1.97
CCCOP(=O)(OCCC)c1nc(-c2ccccc2)oc1NCc1ccccc1 | 6.49
Cn1cccc1C(=O)NC(=O)COC(=O)Cc1coc2ccc3ccccc3c12 | 3.26

Compound | hERG current change (%, negative = inhibition) at 10uM [%]
O=C(Nc1cccc(C(F)(F)F)c1)Nc1ccc(N2CCCC2)c(S(=O)(=O)Nc2ccccc2Cl)c1 | 9.74
Cc1ccc([N+](=O)[O-])cc1N(CC(=O)NCC1CCCO1)S(C)(=O)=O (stereo not drawn) | 13.8
Cc1ccc(Cl)cc1N1CCN(C(=O)Cc2c(C(=O)O)[nH]c3ccccc23)CC1 | -6.17
Cn1cc(CCNC(=O)C2CCC(=O)N(CCc3ccc(Cl)cc3)C2)cn1 (stereo not drawn) | -11.6
Cc1sc2ncnc(Nc3ccc(N4CCOCC4)cc3)c2c1-c1ccccc1 | -1.77
Cc1coc2c1c(C)cc1oc(=O)c(CC(=O)NCC(=O)N[C@H](C(=O)O)C(C)C)c(C)c12 | 17.3
COc1ccc2nc3cc(Cl)ccc3c(Nc3cc(C(C)C)c(O)cc3C)c2c1 | 27.2
CCOC(=O)N1CCN(C(=O)c2ccc3c(=O)n4c(nc3c2)CCCCC4)CC1 | -2.31
CCN(CC)c1ccc2c(O)cc(=O)oc2c1 | 1.84
N/C(=N\OC(=O)c1cccc([N+](=O)[O-])c1)c1cccnc1 | 0.913
Cc1cccc(CNC(=O)C2CCC(=O)N(C3CC3)C2)c1 (stereo not drawn) | 9.51
Cc1ccc(/C=C2/C(=N)N3N=C(CC(=O)N4CCCC4)SC3=NC2=O)o1 | 17.6
COc1ccc(OCc2nc(-c3ccc(F)c(F)c3)cs2)cc1 | 12.5
O=C(CSc1nnc(CNC(=O)c2ccccc2F)o1)Nc1cccc(C(F)(F)F)c1 | -29
O=C(CCc1nc(-c2ccccc2)no1)Nc1cccnc1 | -2.85
N#Cc1c(-c2ccccc2)nc2n1CCS2 | 5
CC(C)(C)C(=O)N1CCN(C(=O)c2ccco2)CC1 | 12.5
Cc1c(Cl)c([N+](=O)[O-])nn1CCCC(=O)Nc1cccc(Cl)c1 | -51.7
Cc1cccn2c(=O)c3c(nc12)N1CCc2ccccc2C1C1(C3)C(=O)NC(=O)N(C)C1=O (stereo not drawn) | 9.79
CC(C)C[C@H](NC(=O)N1CCn2c1nc1ccccc12)C(=O)N[C@H](Cc1ccccc1)C(=O)O | 15.9
CCN(CC)CC(=O)NC1CC(C)(C)Cc2c1cnn2-c1ccc(F)cc1 (stereo not drawn) | 7.43
O=C(NCCCN1CCCC1=O)c1ccc2c(=O)n(Cc3ccco3)c(=S)[nH]c2c1 | -17.8

Compound | hERG current change (%, negative = inhibition) at 10uM [%]
CC1(C)OC(=O)C(=CNc2ccccc2)C(=O)O1 | -4.48
COC(=O)[C@@H](NC(=O)O[C@@H]1C(=O)c2ccc(OC)cc2O[C@H]1c1cccc(C(F)(F)F)c1)C(C)C | 5.54
COc1ccccc1N(C)S(=O)(=O)c1ccc(C(=O)OCC(=O)NCC(F)(F)F)cc1 | 7.97
COC(=O)c1cc(S(=O)(=O)N2CCCC(C)C2)cn1C (stereo not drawn) | -16
Cc1cc(/C=N/NC(=O)C(=O)NCc2ccccn2)c(C)n1-c1cccc(Br)c1 | -14.8
CN(CC(=O)N1CCN(c2ccccc2)CC1)C1CCCc2ccccc21 (stereo not drawn) | -29
COc1cccc(CN(C)CC(=O)Nc2ccccc2N2CCOCC2)c1OC | -12.8
CCN(CC(=O)NCc1cccs1)CC(=O)Nc1c(Cl)ccc(C)c1Cl | -16.8
COc1ccc(NC(=S)NC2CCCCC2)c(OC)c1 | -5.06
CC1=C(C(=O)Nc2ccccc2C)C(c2ccc(C)o2)C2=C(CCCC2=O)N1 (stereo not drawn) | 5.37
Cc1cc(NC(=O)c2ccc(Cl)cc2)no1 | 10.9
COC(=O)/C=C/c1ccccc1S(=O)(=O)N(Cc1ccccc1)Cc1ccco1 | -13
O=C1C2C3C=CC(C2C(=O)N1CCCO)C1C2C(=O)N(CCCO)C(=O)C2C31 (stereo not drawn) | 21.2
COC(=O)CN(c1cccc(C)c1)S(=O)(=O)c1ccccc1 | -14
Cc1ccc(S(=O)(=O)Oc2cccc(N3C(=O)C4CC=CCC4C3=O)c2)cc1 (stereo not drawn) | -17.3
CCOC(=O)c1ccc(-n2ccnc2)c(NC(=O)c2ccc(C(C)(C)C)cc2)c1 | -41
CC(CCc1ccccc1)NC(=O)CN1CCc2ccccc2C1 (stereo not drawn) | -22.4
CCn1ncc([N+](=O)[O-])c1C(=O)Nc1c(C)nn(Cc2ccc(F)cc2)c1C | -34.8
CC(=O)N1c2c(cc(Br)cc2S(=O)(=O)NCC2COc3ccccc3O2)CC1C (stereo not drawn) | -44.5
CC1CCCN(CCC(=O)Nc2ccc(Br)cc2)C1.Cl (stereo not drawn) | -57.6
CN(Cc1ccccc1)S(=O)(=O)c1cccc2nsnc12 | -1.15

Reference: publication PMC4336329 (PLoS ONE, 2015)
